# Measurements: PubChem BioAssay AID651820 (National Center for Advancing Translational Sciences (NCATS), 2012)
# About 12,000 (3.5%) of roughly 340,000 compounds were called active. Inconclusive results, whose numbers are uncertain, are shown with a selection of clear calls. Calls come from the whole dose curve; as a rule, active = well fitted inhibition curve with a large enough effect; inconclusive = small, poorly fitted or top-dose-only effect, or another doubt; inactive = no such curve, though single readings can be large or run the other way. Potencies of inconclusive entries are left out as doubtful fits.
# Test: qHTS Assay for Inhibitors of Hepatitis C Virus (HCV)
# Conditions: Huh7.5.1 HCVcc-Cre (HCVcc is cell-culture hepatitis C virus) infection, luciferase reporter, 44 h; activity change, negative = inhibition: at 41.8 µM (top of the series)
# Method in brief: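 Infectious HCVcc-Cre (~0.5 moi) was added to cells just after compound, with cells seeded 4 h earlier at 1,000 per well. Luciferase activity after 44 h culture reported infection; substrate was incubated 15 min at room temperature before reading.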
# % is set by controls: 0 for no effect and ±100 for the full control effect; potency is the fitted concentration of half-maximal effect; tags give direction and shape of the fitted curve.
SMILES,"activity change, negative = inhibition",Potency
Cc1cc(O)c(C(=O)/C=C/c2ccc(Cl)cc2)c(=O)o1,inactive: -7.47%,–
Cc1cccc(Cc2cnc(NC(=O)c3ccc(C)o3)s2)c1,–,"inconclusive [inhibitor, partial curve, poor fit]"
COc1ccc(C2c3ccc(O)cc3Oc3ncn(Cc4ccco4)c(=N)c32)cc1OC (stereo not drawn),–,"inconclusive [inhibitor, partial curve]"
COCCn1c(SCC(=O)NCCc2ccccc2)nnc1-c1ccco1,inactive: 4.7%,–
CCCN1CCN(CCCNC(=O)c2ccc3nc(N4CCCCC4)sc3c2)CC1,–,"inconclusive [inhibitor, single point]"
COc1ccc(C(=O)OCC(=O)NC(=O)NCc2ccccc2)cc1[N+](=O)[O-],inactive: 20.3%,–
C[C@H](CO)N1C[C@H](C)[C@@H](CN(C)Cc2ccc(C(=O)O)cc2)Oc2c(NC(=O)Cc3ccccc3)cccc2C1=O,inactive: 13%,–
OCCCn1c(CCNc2nc(-c3ccc(F)cc3)cs2)nc2cc(C(F)(F)F)ccc21,–,"inconclusive [inhibitor, single point]"
O=[N+]([O-])c1nn(-c2ccc3c(c2)OCCO3)n(O)c1=NC1CCCC1,–,active: 2.82 µM
C=CC[C@H](CC(=O)N(CCO)Cc1ccccc1)C(=O)N[C@H](COC(=O)[C@@H](CC=C)CC(=O)OC(C)(C)C)c1ccccc1,–,"inconclusive [inhibitor, single point]"
Cn1c(SCC(=O)Nc2nccs2)nnc1-c1ccccn1,inactive: 4.11%,–
Cc1cc(C(=O)CN2C(=O)CN(C)C2=O)c(C)n1-c1cccc(S(=O)(=O)N2CCOCC2)c1,–,"inconclusive [inhibitor, partial curve]"
Cc1cccc(NC(=O)NCc2ccc3c(c2)cc(C)n3C)c1,inactive: -11.9%,–
O=C(O)c1ccccc1CC(CCc1ccccc1)C(=O)O (stereo not drawn),inactive: 5.37%,–
Clc1ccccc1Nc1nc(-c2ccncc2)nc2ccccc12,–,active: 7.08 µM
O=C(Cn1nnc2c(cnn2-c2ccccc2)c1=O)NCc1cccs1,–,"inconclusive [inhibitor, single point]"
COc1ccc(NC(=O)CCCCCn2nnc3ccccc3c2=O)cc1,–,"inconclusive [inhibitor, single point]"
CC[n+]1c(/C=C/Nc2ccccc2)oc2ccccc21,inactive: 8.15%,–
COc1ccc(NS(=O)(=O)c2cc(NC(=O)c3cccnc3Cl)ccc2N2CCCC2)cc1,–,"inconclusive [inhibitor, full curve, poor fit]"
Cc1cccc(N(C(=O)CCC(=O)Nc2cc(C)on2)C(C(=O)NC2CCCC2)c2ccc(C)o2)c1 (stereo not drawn),–,"inconclusive [inhibitor, single point]"
N=C1/C(=C/c2cccn2CCOc2ccccc2)C(=O)N=C2SC=C(c3ccccc3)N12,–,"inconclusive [inhibitor, full curve]"
CC(=O)OC[C@]12CCC(C)=C[C@H]1O[C@@H]1[C@H](O)[C@@H](OC(C)=O)[C@@]2(C)[C@]12CO2,–,"inconclusive [inhibitor, partial curve, poor fit]"

SMILES,"activity change, negative = inhibition",Potency
COC(=O)C1=C(c2cccc(C#N)c2)C[C@@H]2CC[C@H]1N2C(=O)NCCc1ccccc1,–,"inconclusive [inhibitor, full curve]"
CS(=O)(=O)c1cnc(-c2ccccc2)nc1Oc1ccc(Cl)cc1,–,"inconclusive [inhibitor, partial curve, poor fit]"
COCc1cc(C)nc(SCC[N+](C)(C)CC(=O)c2ccc(Br)cc2)c1C#N,–,active: 31.6 µM
N#Cc1c(N)sc2c1CCN(CCc1ccccc1)C2,inactive: -14.2%,–
N#CC1=C(S)N=C(N)C(c2nc(-c3ccccc3)cs2)C12CCCC2 (stereo not drawn),inactive: -10.7%,–
C=CCn1c(-c2ccc(OC)cc2)nc2nc3ccccc3nc21,–,"inconclusive [inhibitor, single point]"
Cc1cnc(C(=O)OCC(=O)Nc2ccc(Cl)cc2Cl)cn1,–,"inconclusive [inhibitor, single point]"
CC(=NNC(=S)Nc1ccc(C)cc1)c1ccccn1,–,"inconclusive [inhibitor, full curve]"
C=CC[C@@H](CC(=O)OC(C)(C)C)C(=O)OC[C@H]1CCCN1C(=O)[C@@H](CC=C)CC(=O)N(CCO)Cc1ccccc1,inactive: -14.3%,–
CCCn1c(=N)n(CC(=O)C(C)(C)C)c2ccccc21,–,"inconclusive [inhibitor, partial curve]"
NCCCCCc1nnc(SCc2cccc(Cl)c2)o1,–,"inconclusive [inhibitor, partial curve]"
COc1ccc(CC(=O)Nc2cccc(/C(C)=N/NC(=O)c3cccc([N+](=O)[O-])c3)c2)cc1,–,"inconclusive [inhibitor, partial curve]"
O=C(NC(=O)c1c(F)cccc1F)O/N=C1\CCCc2occc21,inactive: 25.4%,–
Oc1ccc(Br)cc1/C=N/Nc1nc(N2CCCCC2)nc(N2CCOCC2)n1,–,"inconclusive [inhibitor, single point]"
CCc1nn(C(CC)C(=O)NCCCN2CC(C)CC(C)C2)c(=O)c2cc3oc(C)cc3n12 (stereo not drawn),–,"inconclusive [inhibitor, full curve, poor fit]"
Cc1cc(/C=C2\SC(=S)N(C)C2=O)c(C)n1-c1ccc(O)cc1,–,active: 11.2 µM
C=CC1C(OC2OC(CO)C(O)C(O)C2O)OC=C(C(=O)OC)C1CC1CC(=O)CC(CC(=O)CCc2ccc(O)cc2)O1 (stereo not drawn),inactive: 7.56%,–
COc1cc2c(cc1NC(=O)c1cc(-c3ccccn3)nc3ccccc13)oc1ccccc12,–,"inconclusive [inhibitor, single point]"
CCCCOc1ccc(C2=CSC3=NCCN23)cc1[N+](=O)[O-],–,"inconclusive [inhibitor, single point]"
CC(C)Oc1ccc(S(=O)(=O)N2CCOCC2)cc1NC(=O)C(C)Oc1ccc(F)cc1 (stereo not drawn),–,"inconclusive [inhibitor, full curve, poor fit]"
CCn1nc(C)cc1C(=O)N1CCCC(C(=O)c2ccc(OC)cc2C)C1 (stereo not drawn),–,"inconclusive [inhibitor, single point]"
